The list shows a part of the results.

For this assay, the target named is T1, OsWOX13 (Oryza sativa, UniProt Q5QMM3 1-267).
T1 sequence: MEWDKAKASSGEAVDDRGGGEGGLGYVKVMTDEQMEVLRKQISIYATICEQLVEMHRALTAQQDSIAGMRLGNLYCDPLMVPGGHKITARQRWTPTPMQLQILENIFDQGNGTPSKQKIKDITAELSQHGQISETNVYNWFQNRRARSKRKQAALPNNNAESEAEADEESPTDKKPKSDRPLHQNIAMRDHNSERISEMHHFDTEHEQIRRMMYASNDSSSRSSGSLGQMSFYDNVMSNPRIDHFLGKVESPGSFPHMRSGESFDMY
Description: protein-binding microarray (RPBM); PBS, 2% BSA, 51.3 ng/ul salmon testes DNA, 50 uM zinc acetate, 200 nM TF, 25 C, 1 h; high values mean tight binding. The note with it: protein: recombinant; tags: N-terminal polyhistidine and DsRed monomer fusion (pET32a); label: CyDye5-dUTP incorporated in the synthesized complementary strand; 3' TTTTT single-stranded linker to array surface; dsDNA, one strand shown. The gist of the method: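 An Axon 4000B scanner gave the binding signal as per-feature fluorescence intensity in arbitrary units. This followed washing of a custom Agilent array that had been incubated for 1 h at 25 °C with 200 nM protein in PBS, 2% BSA, salmon testes DNA and 50 µM zinc acetate. The proteins were transcription factors fused at the N-terminus to polyhistidine and DsRed, expressed in E. coli BL21-CodonPlus and purified on Ni–NTA.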
For “AGTATGTATTAACGCATGATTAATTAAGTATTAGCTAATTCGGAGTCACCTAGTGCAG”, the binding signal is 8430 fluorescence intensity (a.u.). Then “AATCAATCAATATGCTACTCAAGATCTGGATCTTGTCTAGCGGAGTCACCTAGTGCAG”, with 33000 fluorescence intensity (a.u.); and “ATTCAATTTGTGTTAAATGATGATCAATATGAAACGGATGCGGAGTCACCTAGTGCAG”, with 39000 fluorescence intensity (a.u.); and “TATTATGATTTGATTTATCATCAAATGTTCTTTAAGCATGCGGAGTCACCTAGTGCAG”, with 39100 fluorescence intensity (a.u.). For “CGTACTGTACTGATTAATCTCGCTCGTTCGCTCCAGCATACGGAGTCACCTAGTGCAG”, the binding signal is 4300 fluorescence intensity (a.u.). In the case of “TATTGTGTATGATTGATTGTCATTCTTTCTTTGACTACATCGGAGTCACCTAGTGCAG”, the binding signal was 38900 fluorescence intensity (a.u.).

Turning to “CTGTACTGATTGTTCACGGGTCGTTTCCGCACTATGGAACCGGAGTCACCTAGTGCAG”, the binding signal was 27900 fluorescence intensity (a.u.).

Take “ACGACAGATTGACAGAATATACTACTCCATAACTTTTGAACGGAGTCACCTAGTGCAG”: the binding signal was 23100 fluorescence intensity (a.u.).

“TAAGTCTATCTAATCATCAAACCGTTTTGCCATCAATTTGCGGAGTCACCTAGTGCAG”: the binding signal was 3740 fluorescence intensity (a.u.). For the sequence “GGCAACGAGATGATTGATAGCCATGAGAACTGGCAATTTTCGGAGTCACCTAGTGCAG”, the binding signal was 25800 fluorescence intensity (a.u.). Turning to “AATAGATAGATAGATATCTTCGAAACTCCCGCCCGCCACCCGGAGTCACCTAGTGCAG”, the binding signal is 30600 fluorescence intensity (a.u.). Consider “GTCCACATCCAATCACCTTCAAAATCCATCAGATTATCTGCGGAGTCACCTAGTGCAG”, for which the binding signal is 10300 fluorescence intensity (a.u.). On to “ATTTGTCTCTCTATCTTTAATTTATGATATATCCCCATATCGGAGTCACCTAGTGCAG”, for which the binding signal is 3480 fluorescence intensity (a.u.).

On to “TATGCACAAATTATAATCATGTACAGTTACCCTCTGTTGCCGGAGTCACCTAGTGCAG”, for which the binding signal was 12300 fluorescence intensity (a.u.). For “TATAGCTAATTGATGGGCACAATGCGAGTCGCATTTGCATCGGAGTCACCTAGTGCAG” the value was 38200 fluorescence intensity (a.u.); for “GTTATGTTGATTGTGCCGCCCAAATATAGACTTGAACTCACGGAGTCACCTAGTGCAG”, 7520 fluorescence intensity (a.u.); for “TAAACATAGATTACTAACAAAACTTATTCCATAACCCCTACGGAGTCACCTAGTGCAG”, 3400 fluorescence intensity (a.u.). Regarding “ATCAAAATTTAGTAAGATTTATTTTGGCTATAATCTGAACCGGAGTCACCTAGTGCAG”, the binding signal is 4650 fluorescence intensity (a.u.). Take “TCGTTAATTTACTAGTGACTTCAAATGGTTTACGCAATTACGGAGTCACCTAGTGCAG”: the binding signal is 19500 fluorescence intensity (a.u.). Take “CGGCCAATTACGTTTCGTTAGTCGTTAAAACAGTTAACACCGGAGTCACCTAGTGCAG”: the binding signal is 10100 fluorescence intensity (a.u.).

As to “AATCTTGATTAAACATAAATAAGTTCGACTAGAAGAAAGACGGAGTCACCTAGTGCAG”, the binding signal is 4120 fluorescence intensity (a.u.). Then “ATGATTTGTTCAGATCCATAGTAACAGAATAAGCTGCAACCGGAGTCACCTAGTGCAG”, with 10500 fluorescence intensity (a.u.). Turning to “CGAACAAGCTGATTAACATGCATGATTTCCTAGTATTTCCCGGAGTCACCTAGTGCAG”, the binding signal was 8230 fluorescence intensity (a.u.).

The values are drawn from publication PMC7819943, “Rice protein-binding microarrays: a tool to detect cis-acting elements near promoter regions in rice”.
